In paper PMC3749138:
Residue numbers refer to the chain shown, from its start. Results are given in words; binding and its absence hold for the method and conditions named. In cells and extracts the contact can be indirect. Some entries that bind do so weakly or less than the wild type. Sequences can lack the tags named with a protein.

Chains of the proteins cited; added tags and fusions are not shown.
UniProt O60573: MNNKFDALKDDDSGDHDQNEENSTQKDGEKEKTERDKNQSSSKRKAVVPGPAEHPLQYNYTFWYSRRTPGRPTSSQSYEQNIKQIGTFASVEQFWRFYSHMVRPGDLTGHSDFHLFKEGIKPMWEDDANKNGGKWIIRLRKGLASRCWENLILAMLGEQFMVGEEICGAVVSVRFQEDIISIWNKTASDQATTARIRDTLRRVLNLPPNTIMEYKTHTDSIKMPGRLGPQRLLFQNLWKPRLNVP
UniProt P06730: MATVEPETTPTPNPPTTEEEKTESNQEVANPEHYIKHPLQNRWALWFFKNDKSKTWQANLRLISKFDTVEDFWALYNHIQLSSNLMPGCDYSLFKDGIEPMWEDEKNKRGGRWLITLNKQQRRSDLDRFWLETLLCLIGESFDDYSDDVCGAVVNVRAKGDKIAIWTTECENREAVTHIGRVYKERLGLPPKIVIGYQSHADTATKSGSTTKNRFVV

Tests used:
GFP-4E-T Y55A (human) = target: T1, GFP-4E-T Y55A (human) (UniProt Q9NRA8); assay: pull-down; GFP-Trap magnetic beads with 1 mg lysate of cells transfected with GFP-4E-T, NET buffer (50 mM Tris-HCl pH 7.5, 150 mM NaCl, 1 mM EDTA, 0.5% Nonidet P-40, 0.25% gelatin), 1.25 h at 4°C; western blotting with eIF4E1, eIF4E2 and 4E-T antibodies
T1 sequence: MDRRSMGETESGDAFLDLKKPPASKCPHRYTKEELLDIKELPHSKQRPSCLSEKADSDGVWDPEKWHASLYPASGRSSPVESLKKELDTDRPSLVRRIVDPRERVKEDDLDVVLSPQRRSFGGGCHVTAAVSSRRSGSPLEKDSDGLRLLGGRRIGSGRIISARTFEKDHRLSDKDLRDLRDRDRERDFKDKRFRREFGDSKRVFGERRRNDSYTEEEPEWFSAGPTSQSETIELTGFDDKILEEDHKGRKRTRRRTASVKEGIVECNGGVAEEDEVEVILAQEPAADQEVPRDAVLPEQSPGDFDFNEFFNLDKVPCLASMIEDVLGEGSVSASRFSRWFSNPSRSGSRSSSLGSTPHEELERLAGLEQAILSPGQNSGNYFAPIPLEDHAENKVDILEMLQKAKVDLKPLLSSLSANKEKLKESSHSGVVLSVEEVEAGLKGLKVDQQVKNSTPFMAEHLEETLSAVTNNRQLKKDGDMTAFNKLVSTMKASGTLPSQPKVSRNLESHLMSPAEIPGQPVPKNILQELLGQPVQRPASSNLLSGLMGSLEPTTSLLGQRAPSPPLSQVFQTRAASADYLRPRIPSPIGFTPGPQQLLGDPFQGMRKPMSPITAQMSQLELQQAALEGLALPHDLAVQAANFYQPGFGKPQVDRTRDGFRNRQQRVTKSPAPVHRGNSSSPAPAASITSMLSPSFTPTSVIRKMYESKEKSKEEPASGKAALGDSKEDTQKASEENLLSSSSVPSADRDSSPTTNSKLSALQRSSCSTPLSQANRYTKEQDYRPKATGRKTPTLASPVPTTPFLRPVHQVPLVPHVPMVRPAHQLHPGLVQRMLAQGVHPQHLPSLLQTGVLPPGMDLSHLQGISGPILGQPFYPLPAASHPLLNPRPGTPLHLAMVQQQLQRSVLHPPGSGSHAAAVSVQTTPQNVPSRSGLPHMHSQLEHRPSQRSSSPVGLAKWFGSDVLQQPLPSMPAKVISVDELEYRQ

[1] = target: T2, GFP-4E-T Y55A VW60/61AA (human) (UniProt Q9NRA8); assay: as above
T2 sequence: T1 sequence with V60A, W61A

Row | binding (GFP-4E-T Y55A (human)) | binding [1] | Substance
1 | no binding | no binding | eIF4E2 (endogenous) (from UniProt O60573 1-245)
2 | binds | no binding | eIF4E1 (endogenous) (from UniProt P06730 1-217)
